Measurements: article PMC4939424
No constants are given. Whether binding was seen depends on the method and setting. Binding seen in cells or lysates may run through a third protein. Some binding calls cover weakened binding; strength is not graded here. Sequences can lack the tags named with a protein.

Columns and labels:
Experiment in all cases: co-IP; GFP-PI3KAP/XB130 co-transfected with full-length or deletion mutants of FLAG-tagged PI3KAP/XB130 into HEK293T cells; lysates immunoprecipitated with anti-FLAG M2 agarose, immunoblotting
[1] = molecular target: T1, FLAG-tagged PI3KAP/XB130 deletion mutant, amino acid residues 1-185 (mouse) (UniProt Q5DTU0)
T1 sequence: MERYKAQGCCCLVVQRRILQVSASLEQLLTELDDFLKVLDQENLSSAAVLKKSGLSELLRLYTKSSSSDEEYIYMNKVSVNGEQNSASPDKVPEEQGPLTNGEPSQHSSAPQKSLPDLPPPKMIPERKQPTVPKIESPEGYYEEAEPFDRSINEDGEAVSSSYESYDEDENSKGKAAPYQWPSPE

[2] = molecular target: T2, FLAG-tagged PI3KAP/XB130 deletion mutant, amino acid residues 1-510 (mouse) (UniProt Q5DTU0)
T2 sequence: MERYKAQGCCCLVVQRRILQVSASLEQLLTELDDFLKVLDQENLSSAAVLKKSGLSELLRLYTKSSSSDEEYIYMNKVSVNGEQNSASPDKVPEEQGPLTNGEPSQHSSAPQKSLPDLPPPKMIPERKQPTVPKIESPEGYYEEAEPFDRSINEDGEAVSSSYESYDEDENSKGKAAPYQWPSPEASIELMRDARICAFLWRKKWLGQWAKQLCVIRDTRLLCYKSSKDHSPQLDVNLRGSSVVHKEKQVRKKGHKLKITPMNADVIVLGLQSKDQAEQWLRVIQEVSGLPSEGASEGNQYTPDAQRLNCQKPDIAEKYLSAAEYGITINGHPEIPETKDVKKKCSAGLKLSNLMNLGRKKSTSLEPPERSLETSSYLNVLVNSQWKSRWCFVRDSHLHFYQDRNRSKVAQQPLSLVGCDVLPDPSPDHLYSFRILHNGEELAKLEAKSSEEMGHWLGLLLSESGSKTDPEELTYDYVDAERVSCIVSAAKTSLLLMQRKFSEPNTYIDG

[3] = molecular target: T3, FLAG-tagged PI3KAP/XB130 deletion mutant, amino acid residues 511-843 (mouse) (UniProt Q5DTU0)
T3 sequence: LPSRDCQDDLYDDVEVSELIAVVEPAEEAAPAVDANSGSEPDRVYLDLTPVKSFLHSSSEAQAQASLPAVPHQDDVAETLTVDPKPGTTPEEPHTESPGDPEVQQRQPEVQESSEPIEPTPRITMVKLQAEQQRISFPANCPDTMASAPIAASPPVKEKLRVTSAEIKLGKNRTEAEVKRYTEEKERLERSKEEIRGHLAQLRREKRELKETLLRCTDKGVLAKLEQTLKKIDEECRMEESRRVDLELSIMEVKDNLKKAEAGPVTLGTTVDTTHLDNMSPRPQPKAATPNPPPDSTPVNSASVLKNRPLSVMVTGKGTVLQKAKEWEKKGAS

[4] = molecular target: T4, FLAG-tagged PI3KAP/XB130 deletion mutant, amino acid residues 654-843 (mouse) (UniProt Q5DTU0)
T4 sequence: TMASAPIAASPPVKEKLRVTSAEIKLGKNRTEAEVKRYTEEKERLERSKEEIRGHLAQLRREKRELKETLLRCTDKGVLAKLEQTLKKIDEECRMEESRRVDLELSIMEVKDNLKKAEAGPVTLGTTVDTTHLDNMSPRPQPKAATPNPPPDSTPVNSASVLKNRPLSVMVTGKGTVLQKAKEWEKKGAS

[5] = molecular target: T5, FLAG-tagged recombinant full-length PI3KAP/XB130 (mouse) (UniProt Q5DTU0)
T5 sequence: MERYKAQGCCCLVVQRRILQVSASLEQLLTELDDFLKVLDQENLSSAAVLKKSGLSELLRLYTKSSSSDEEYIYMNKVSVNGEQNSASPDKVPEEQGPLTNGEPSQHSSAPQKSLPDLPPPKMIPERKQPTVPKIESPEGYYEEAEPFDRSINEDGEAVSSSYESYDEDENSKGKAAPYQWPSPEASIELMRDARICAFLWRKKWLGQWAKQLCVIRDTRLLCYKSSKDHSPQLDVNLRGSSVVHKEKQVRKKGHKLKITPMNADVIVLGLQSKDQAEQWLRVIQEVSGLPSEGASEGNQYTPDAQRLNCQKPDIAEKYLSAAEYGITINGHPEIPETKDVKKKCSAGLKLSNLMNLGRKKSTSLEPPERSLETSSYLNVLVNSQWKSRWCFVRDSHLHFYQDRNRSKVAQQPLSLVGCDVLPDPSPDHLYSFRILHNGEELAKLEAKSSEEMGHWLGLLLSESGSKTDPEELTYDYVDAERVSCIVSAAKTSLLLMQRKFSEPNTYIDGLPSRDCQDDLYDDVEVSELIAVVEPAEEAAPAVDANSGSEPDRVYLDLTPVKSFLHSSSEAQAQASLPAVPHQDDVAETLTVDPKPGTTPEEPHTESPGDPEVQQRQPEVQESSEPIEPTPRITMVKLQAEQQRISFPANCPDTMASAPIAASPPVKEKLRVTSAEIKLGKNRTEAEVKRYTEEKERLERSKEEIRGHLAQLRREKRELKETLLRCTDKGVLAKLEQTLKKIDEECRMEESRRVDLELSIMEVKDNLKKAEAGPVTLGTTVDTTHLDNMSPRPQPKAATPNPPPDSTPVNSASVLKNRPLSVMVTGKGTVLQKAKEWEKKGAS

binding [1]: binds | binding [2]: binds | binding [3]: no binding | binding [4]: no binding | binding [5]: binds
B1: GFP-fused PI3KAP/XB130 (protein, UniProt Q5DTU0-2 1-843)
chain: T5 sequence
